# Source: PubChem BioAssay AID624417 (National Center for Advancing Translational Sciences (NCATS), 2012)
# Out of some 410,000 compounds screened, about 6,400 (1.6%) were called active. The inconclusive results got no clear call from the source; some entries with a clear call stand among them for comparison. Calls come from the whole dose curve; as a rule, active = well fitted inhibition curve with a large enough effect; inconclusive = small, poorly fitted or top-dose-only effect; inactive = no such curve, though single readings can be large or run the other way. Potencies of inconclusive entries are left out as doubtful fits.
# Target: Glucagon-like peptide 1 receptor (Homo sapiens) (UniProt P43220)
# Assay: qHTS of GLP-1 Receptor Inverse Agonists (Inhibition Mode); note: nearly all actives have a fitted effect of over 55% in size
# Conditions: HEK293 GLP-1R CRE-luciferase, luminescence, 24 h, GLP-1R form is constitutively active; series mostly up to 38.3 µM
# Outline: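 GLP-1R inverse agonism mode: basal reporter luminescence in engineered HEK293 cells measured after one day of compound exposure at 37 deg C, with a 12 min room-temperature detection step.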
# Potency is the fitted concentration of half-maximal effect; tags give direction and shape of the fitted curve.
# Sequence of UniProt P43220 (P43220 whole entry, looked up): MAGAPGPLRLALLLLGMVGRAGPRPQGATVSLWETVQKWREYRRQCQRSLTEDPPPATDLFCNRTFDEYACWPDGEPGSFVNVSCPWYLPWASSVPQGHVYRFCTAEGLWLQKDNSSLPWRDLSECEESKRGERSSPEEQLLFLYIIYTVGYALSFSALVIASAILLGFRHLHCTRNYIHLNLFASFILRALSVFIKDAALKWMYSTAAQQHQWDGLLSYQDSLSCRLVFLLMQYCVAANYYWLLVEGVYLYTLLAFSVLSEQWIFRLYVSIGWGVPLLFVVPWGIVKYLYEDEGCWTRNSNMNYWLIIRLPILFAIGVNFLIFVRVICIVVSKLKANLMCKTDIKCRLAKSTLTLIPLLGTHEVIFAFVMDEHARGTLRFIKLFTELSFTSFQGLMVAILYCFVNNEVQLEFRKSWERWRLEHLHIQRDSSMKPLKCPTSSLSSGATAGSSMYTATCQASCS
row,Structure (SMILES),Potency
1,C=CC(C)(C)c1[nH]cnc1/C=C1\NC(=O)C(C(C)C)NC1=O (stereo not drawn),"inconclusive [inhibitor, full curve]"
2,CCC(=O)Nc1nonc1-c1nc2ccccc2n1Cc1cccc2ccccc12,"inconclusive [inhibitor, partial curve]"
3,Cn1cccc1CNC(=O)Nc1ccc(Cl)c(Cl)c1,"inconclusive [inhibitor, single point]"
4,O=C(CN1C(=O)NC2(CCCCCCC2)C1=O)Nc1ccc(OC(F)F)cc1,"inconclusive [inhibitor, partial curve, poor fit]"
5,O=C(CSCC(=O)N1CCCCC1)Nc1nc(-c2cccs2)cs1,"inconclusive [inhibitor, partial curve, poor fit]"
6,COc1ccc(NC(=O)C2(C)Cc3c(-c4ccc(C(N)=O)cc4)ccnc3O2)cc1 (stereo not drawn),inactive
7,CCCCOc1ccc(SCCCN2CCOCC2)cc1,"inconclusive [inhibitor, single point]"
8,OC(c1ccccn1)C1CCN(Cc2nc(C(c3ccccc3)c3ccccc3)no2)CC1 (stereo not drawn),"inconclusive [inhibitor, single point]"
9,CC(=O)N1CCC(C(=O)OCc2ccccc2F)(c2ccccc2)CC1,"inconclusive [inhibitor, partial curve, poor fit]"
10,COc1cc2c(cc1NC(=O)/C=C/c1ccccc1)oc1ccccc12,"inconclusive [inhibitor, partial curve, poor fit]"
11,Cc1cccc(N(Cc2ccccc2)C(=O)c2cc(S(=O)(=O)N3CCOCC3)ccc2Cl)c1,"inconclusive [inhibitor, single point]"
12,CC(C)Nc1nc(NCCOc2ccccc2Cl)c2sc(-c3ccccc3)cc2n1,"inconclusive [inhibitor, full curve]"
13,CC(C)OCCCN1CN(S(=O)(=O)c2cccc(Cl)c2)c2nc3ccccc3nc21,"inconclusive [inhibitor, partial curve, poor fit]"
14,COc1cc(NC2CCCCC2O)c2nc(-c3ccc(Cl)cc3)ccc2c1 (stereo not drawn),"inconclusive [inhibitor, partial curve, poor fit]"
15,Cc1ccc(C(C)C)c2c1C(c1ccc3c(c1)OCO3)CC(=O)O2 (stereo not drawn),"inconclusive [inhibitor, single point]"
16,COc1ccc(/C=C/C(=O)C2(O)CCCCC2)cc1,active: 10 µM
17,Cc1ccc(-c2nnc(SC(C)C(=O)NCC3CCCO3)nc2-c2ccc(C)cc2)cc1 (stereo not drawn),"inconclusive [inhibitor, partial curve, poor fit]"
18,CN(C(=O)c1ccc(COc2ccccc2Cl)o1)c1ccccc1,"inconclusive [inhibitor, partial curve, poor fit]"
19,Cc1cccn2c(=O)c(C(=O)NCCCN3CC(C)CC(C)C3)c(O)nc12 (stereo not drawn),"inconclusive [inhibitor, single point]"
20,OCC1(Cc2ccccc2)CCCN(Cc2ccc(-c3ccco3)cc2)C1 (stereo not drawn),"inconclusive [inhibitor, partial curve, poor fit]"
21,O=C(CCc1ccccc1)NC(=S)Nc1ccccc1[N+](=O)[O-],"inconclusive [inhibitor, single point]"

row,Structure (SMILES),Potency
1,COc1cccc(-c2cc(N)nn2C(=O)Nc2ccc(Cl)cc2)c1,"inconclusive [inhibitor, single point]"
2,COCCN=c1scc(-c2ccc3c(c2)NC(=O)CO3)n1/N=C(\C)c1ccc(O)cc1,"inconclusive [inhibitor, single point]"
3,Cc1ccc(C(=O)Nc2cccc(S(=O)(=O)N3CCCCC3)c2)cc1S(=O)(=O)N1CCOCC1,"inconclusive [inhibitor, partial curve]"
4,COc1ccccc1N1CCN(c2csc3ccc(Cl)cc3c2=O)CC1,inactive
5,Cc1cccc(C2c3[nH]c4ccccc4c3CCN2Cc2cccn2-c2ncccn2)c1 (stereo not drawn),"inconclusive [inhibitor, partial curve, poor fit]"
6,O=C(Nc1ccc(N2CCN(C(=O)c3ccco3)CC2)c(Cl)c1)c1cc2ccccc2o1,"inconclusive [inhibitor, partial curve, poor fit]"
7,Cc1ccc(Cn2c(-c3ccccc3)nc3ccccc32)cc1,"inconclusive [inhibitor, partial curve, poor fit]"
8,COc1ccc(Cn2nnnc2C(C(C)C)N2CCc3ccccc32)cc1 (stereo not drawn),"inconclusive [inhibitor, single point]"
9,O=C(CCc1ccccc1F)N1CCN(c2ccc(C(F)(F)F)cn2)CC1,"inconclusive [inhibitor, partial curve, poor fit]"
10,COc1ccc(S(=O)(=O)N2CCN(c3ccccc3OC)CC2)cc1-c1noc(C)n1,inactive
11,O=C(COc1ccc2cc(Br)ccc2c1Br)N1CCOCC1,"inconclusive [inhibitor, partial curve, poor fit]"
12,COc1cc(OC)c(NC(=O)c2cc(CN3CCOCC3)on2)cc1Cl,inactive
13,CNC(=O)c1cccnc1Nc1cccc(C(F)(F)F)c1,"inconclusive [inhibitor, single point]"
14,CCn1ccc2cc(S(=O)(=O)N3CCCN(C(=O)NCC(C)C)CC3)ccc21,inactive
15,Cc1ccc(C(C)C)c(OCCCN2C(=O)NC(C)(C)C2=O)c1,"inconclusive [inhibitor, single point]"
16,COc1ccc(NS(=O)(=O)c2ccc(NC(=O)Cc3cccs3)cc2)cc1,"inconclusive [inhibitor, single point]"
17,Cc1ccc(COc2ccc(CNCCCN3CCCCCC3=O)cc2)cc1,"inconclusive [inhibitor, partial curve, poor fit]"
18,COc1ccc(-c2[nH]c(-c3cc(OC)c4c(c3)OCO4)nc2-c2ccccc2)cc1,"inconclusive [inhibitor, full curve]"
19,Cc1ccn(CC(=O)N/N=C/c2cc([N+](=O)[O-])ccc2O)n1,inactive
20,CC1CCCC(C)N1NC(=S)Nc1ccc(OC(F)F)cc1 (stereo not drawn),"inconclusive [inhibitor, single point]"
21,O=C(CCS(=O)(=O)c1ccc(Br)cc1)Nc1ccccc1Cl,inactive

row,Structure (SMILES),Potency
1,CCN(CC)C1=CC2=CC(=C(C#N)C#N)CCC2CC1 (stereo not drawn),inactive
2,Nc1nc(NCCCN2CCOCC2)nc(Nc2cccc(Cl)c2)c1[N+](=O)[O-],"inconclusive [inhibitor, single point]"
3,CC(C)CC1c2[nH]c3ccccc3c2CCN1C(=O)CCC(=O)N(C)C (stereo not drawn),"inconclusive [inhibitor, partial curve, poor fit]"
4,CCOC(=O)C1CCCN(C(=O)C(C)(C)Oc2ccc(Cl)cc2)C1 (stereo not drawn),"inconclusive [inhibitor, single point]"
5,CCOC(=O)c1cc(C)sc1NC(=O)CSC1=NCCS1,"inconclusive [inhibitor, single point]"
6,CC(CNC(=O)c1ccc2c(c1)OCO2)c1ccc([N+](=O)[O-])cc1 (stereo not drawn),"inconclusive [inhibitor, partial curve, poor fit]"
7,Cc1cccc(C2CC(c3ccccc3)=NN2c2ccc(S(N)(=O)=O)cc2)c1 (stereo not drawn),"inconclusive [inhibitor, single point]"
8,Cc1c(C(=O)NCC2COc3ccccc3O2)oc2ccc(S(=O)(=O)N3CC(C)CC(C)C3)cc12 (stereo not drawn),"inconclusive [inhibitor, partial curve, poor fit]"
9,Cc1ccc(CN(C(=O)Nc2cccc(Cl)c2)c2ccccn2)cc1,"inconclusive [inhibitor, partial curve, poor fit]"
10,Cc1ccc(C(=O)Nc2c(C#N)c(C)c(C)n2Cc2ccccc2)cc1,"inconclusive [inhibitor, full curve, poor fit]"
11,O=C(N/N=C/c1cc2c(cc1Br)OCO2)c1cc2ccccc2o1,inactive
12,COc1ccc(S(=O)(=O)N(CC(=O)NCc2ccco2)c2ccc(F)cc2)cc1,"inconclusive [inhibitor, partial curve, poor fit]"
13,CC(C)Nc1nc(Nc2ccccc2Cl)c2sccc2n1,"inconclusive [inhibitor, single point]"
14,Cc1ccc(C23CC4CC(CC(CC(=O)NC(C)(C)CO)(C4)C2)C3)cc1,"inconclusive [inhibitor, single point]"
15,CC1=C(c2ccc(C)cc2)S(=O)(=O)NC1=NCc1cccc(F)c1,inactive
16,O=C(c1ccc2c(c1)OCO2)N1CCc2ccccc21,"inconclusive [inhibitor, partial curve, poor fit]"
17,COC(=O)c1ccc(NC(=O)CC2C(=O)N(c3ccc(Cl)cc3)C(=O)N2Cc2ccco2)cc1 (stereo not drawn),"inconclusive [inhibitor, single point]"
18,CCn1c2ccccc2c2cc(/C=N/n3c(-c4cc(C)[nH]n4)n[nH]c3=S)ccc21,active: 2.51 µM
19,CC(C)OC(=O)c1ccc(N2CCN(c3ccccc3F)CC2)nc1,"inconclusive [inhibitor, partial curve, poor fit]"
20,Cc1cc(C)c2c(c1)C(=O)/C(=C/c1ccc(C(=O)O)cc1)CC2,"inconclusive [inhibitor, single point]"
21,COc1cc(OC)c(C2Nc3c(C)cccc3-c3cc(C)nn32)cc1OC (stereo not drawn),inactive
